Screen size: about 310,000 compounds; about 2,200 (0.71%) showed an effect of 50% or more. Effects have a minus sign here. The list shows a part of the results.
Each compound was assayed against human ether-à-go-go-related gene (hERG) potassium channel (human, UniProt Q12809) (assay: primary screen, population patch clamp on CHO cells stably expressing hERG).
Sequence of human ether-à-go-go-related gene (hERG) potassium channel (Q12809 whole entry, looked up): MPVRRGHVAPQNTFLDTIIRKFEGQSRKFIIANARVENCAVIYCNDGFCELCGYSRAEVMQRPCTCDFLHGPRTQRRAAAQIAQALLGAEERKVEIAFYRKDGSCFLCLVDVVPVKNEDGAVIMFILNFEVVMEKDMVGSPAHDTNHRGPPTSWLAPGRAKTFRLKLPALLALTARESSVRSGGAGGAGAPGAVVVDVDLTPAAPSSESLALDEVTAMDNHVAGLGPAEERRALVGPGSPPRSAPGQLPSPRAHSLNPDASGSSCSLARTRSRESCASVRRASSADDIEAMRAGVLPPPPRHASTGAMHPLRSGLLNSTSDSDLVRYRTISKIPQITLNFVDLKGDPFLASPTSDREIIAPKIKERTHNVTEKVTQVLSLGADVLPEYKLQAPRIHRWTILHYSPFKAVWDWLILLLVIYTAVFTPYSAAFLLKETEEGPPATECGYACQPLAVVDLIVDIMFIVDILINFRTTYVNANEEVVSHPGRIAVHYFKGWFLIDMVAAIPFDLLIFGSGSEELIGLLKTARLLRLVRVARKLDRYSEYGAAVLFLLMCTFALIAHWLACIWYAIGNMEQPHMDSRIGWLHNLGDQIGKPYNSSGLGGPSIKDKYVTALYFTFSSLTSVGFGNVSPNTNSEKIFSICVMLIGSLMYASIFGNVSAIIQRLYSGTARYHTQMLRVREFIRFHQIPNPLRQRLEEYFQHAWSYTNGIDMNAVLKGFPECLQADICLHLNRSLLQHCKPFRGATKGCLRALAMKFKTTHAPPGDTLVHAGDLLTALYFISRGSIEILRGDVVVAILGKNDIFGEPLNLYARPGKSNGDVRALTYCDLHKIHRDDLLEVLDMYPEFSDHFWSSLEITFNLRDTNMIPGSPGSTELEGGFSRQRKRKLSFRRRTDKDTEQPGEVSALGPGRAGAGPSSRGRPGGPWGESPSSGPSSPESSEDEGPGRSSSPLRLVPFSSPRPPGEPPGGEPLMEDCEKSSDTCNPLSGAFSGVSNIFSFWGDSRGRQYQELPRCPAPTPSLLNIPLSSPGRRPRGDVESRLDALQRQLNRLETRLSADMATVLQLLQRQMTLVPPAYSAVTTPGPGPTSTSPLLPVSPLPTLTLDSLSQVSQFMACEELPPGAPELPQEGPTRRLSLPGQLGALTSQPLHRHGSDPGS

First: Cc1ccccc1NC(=O)C1CCCN(S(=O)(=O)c2cccc3cccnc23)C1 (centres unmarked)
Second: Cc1onc(-c2ccccc2)c1C(=O)Nc1ccc(Cl)c(S(=O)(=O)N2CCOCC2)c1
The “hERG current change (%, negative = inhibition) at 1uM” value of the first is lower: 3.89% for the first, 4.31% for the second.

Going from O=C(c1cc(S(=O)(=O)N2CCOCC2)ccc1Cl)N1CCC(Cc2ccccc2)CC1 to COc1ccc(S(=O)(=O)N2CCOCC2)cc1NC(=O)Cc1c(F)cccc1Cl, the “hERG current change (%, negative = inhibition) at 1uM” value rises from 3.01% to 8.34%.

Going from O=C(CN1CCN(c2ncc(C(F)(F)F)cc2Cl)CC1)NC(=O)NCc1ccccc1 to Cc1ccc(CN2CCN(Cc3ccccc3C(F)(F)F)CC2)cc1.O=C(O)C(=O)O, the “hERG current change (%, negative = inhibition) at 1uM” value rises from 10.7% to 13.5%.

First: COc1ccc(-c2nnc(-c3ccc(C)cc3)o2)cc1
Second: COc1ccc(-c2oc(/N=C/N3CCOCC3)c(C#N)c2-c2ccc(OC)cc2)cc1
The “hERG current change (%, negative = inhibition) at 1uM” value of the first is lower: 12.9% for the first, 15.4% for the second.

First: O=C(O)CCC(=O)Nc1ccc(S(=O)(=O)c2ccc(NC(=O)CCC(=O)O)cc2)cc1
Second: CC1CCN(S(=O)(=O)c2ccc(NC(=S)NC(=O)c3ccc(Cl)cc3)cc2)CC1
The “hERG current change (%, negative = inhibition) at 1uM” value of the first is higher: 6.9% for the first, -2.42% for the second.

First: COc1ccc(C(=O)NCc2ccco2)cc1S(=O)(=O)NC1CC1
Second: O=C(NCc1ccco1)c1ccc2c(c1)CCO2
The “hERG current change (%, negative = inhibition) at 1uM” value of the first is lower: -3.11% for the first, 13.8% for the second.

Going from CCC(=O)N1CCN(c2ccc(NC(=O)c3ccc(C#N)cc3F)cc2Cl)CC1 to Cc1ccc(Oc2ccc(Cl)cc2NC(=O)c2ccc(F)cc2F)cc1, the “hERG current change (%, negative = inhibition) at 1uM” value rises from 3.09% to 7.82%.

Going from CCCn1c(SCc2ccccc2)nc2c1c(=O)[nH]c(=O)n2C to CCn1c(Cc2ccccc2)nnc1SC(C)C(=O)NC1CC1 (centres unmarked), the “hERG current change (%, negative = inhibition) at 1uM” value falls from 3.44% to 3.04%.

Compared with CCOC(=O)c1c[nH]n2c(=O)cc(C)nc12, Cc1cc2nc(C(F)(F)F)[nH]c(=O)n2n1 is higher in “hERG current change (%, negative = inhibition) at 1uM” value: 13.5% for the first, 14.6% for the second.

First: C[C@H](NC(=O)c1nc[nH]c1C(=O)N[C@@H](CCCCNC(=O)OC(C)(C)C)C(=O)OC(C)(C)C)C(=O)OC(C)(C)C
Second: CC(C)CN(C(=O)CCC(=O)OCC(=O)c1ccc(F)c(F)c1)c1c(N)n(CC(C)C)c(=O)[nH]c1=O
The “hERG current change (%, negative = inhibition) at 1uM” value of the first is lower: 3.21% for the first, 8.69% for the second.

First: CCOc1ccc(CNC(=O)Cn2nc(C)n3nc(-c4ccccc4)cc3c2=O)cc1
Second: CCOc1ccc(CNc2ncc(-c3ccccc3)n2C)cc1
The “hERG current change (%, negative = inhibition) at 1uM” value of the first is higher: 0.874% for the first, -3.02% for the second.

First: COc1ccc(C(=O)N=c2sc3c(C)ccc(OC)c3n2C)cc1OC
Second: COc1ccc(NC(=O)c2oc3cc(C)c(C)cc3c2C)c(OC)c1
The “hERG current change (%, negative = inhibition) at 1uM” value of the first is lower: 6.8% for the first, 11.9% for the second.

Going from Cc1ccc(-c2nnc3c(C(F)(F)F)nc4ccccc4n23)cc1 to Cc1ccccc1-n1cc(-c2ccc(Br)cc2)nc1SCC(N)=O, the “hERG current change (%, negative = inhibition) at 1uM” value rises from 8.9% to 10.3%.

Going from O=C(c1ccccc1NS(=O)(=O)c1ccc(F)cc1)N1CCc2ccccc21 to COC(=O)c1cc2oc3ccccc3c2n1CC(=O)N1CCCc2ccccc21, the “hERG current change (%, negative = inhibition) at 1uM” value rises from 12.2% to 15%.

Going from CCN(CC(=O)NC(C)(C)C)Cc1nc2c(Br)cc(Br)cc2c(=O)[nH]1 to Oc1c(Br)cc(Br)cc1CNc1nccs1, the “hERG current change (%, negative = inhibition) at 1uM” value falls from 15% to 12.6%.

Compared with COc1cc(CNC(=O)CCCCCCC(C)C)ccc1O, CCN=C1SC(CC(=O)NCCc2ccc(OC)c(OC)c2)C(=O)N1CC (centres unmarked) is higher in “hERG current change (%, negative = inhibition) at 1uM” value: 2.39% for the first, 9.27% for the second.

Compared with Cc1cc(Br)c(NC(=O)c2c(-c3c(Cl)cccc3Cl)noc2C)c(Br)c1, CC[C@@]1(O)C(=O)OCc2c1cc1n(c2=O)Cc2cc3c(NC(=O)CN)cccc3nc2-1.Cl is higher in “hERG current change (%, negative = inhibition) at 1uM” value: 10.8% for the first, 16.7% for the second.

Compared with CCOc1ccc(N(CC(=O)Nc2cccc(C)c2)S(C)(=O)=O)cc1, COc1ccc(N(CC(=O)N/N=C/c2cccc(OC)c2OC)S(=O)(=O)c2ccccc2)cc1 is higher in “hERG current change (%, negative = inhibition) at 1uM” value: 10.2% for the first, 12.7% for the second.

First: CN(C)c1ccc(N2C(=O)CC(Nc3ccc(N4CCOCC4)cc3)C2=O)cc1 (centres unmarked)
Second: CC(=O)Nc1ccc(N2CCOCC2)c([N+](=O)[O-])c1
The “hERG current change (%, negative = inhibition) at 1uM” value of the first is lower: 0.153% for the first, 3.53% for the second.

Compared with Cl.OCCNCCNCc1ccc(-c2ccccc2)cc1, C(=N\NCc1ccccc1)/c1ccc2ncccc2c1 is lower in “hERG current change (%, negative = inhibition) at 1uM” value: 13.1% for the first, 11.2% for the second.

First: O=C(COC(=O)CN1C(=O)NC2(CCCC2)C1=O)Nc1ccc(C(F)(F)F)cc1[N+](=O)[O-]
Second: CCc1cc(C(=O)NN2C(=O)NC3(CCCCC3)C2=O)sc1C
The “hERG current change (%, negative = inhibition) at 1uM” value of the first is lower: 4.09% for the first, 17.8% for the second.

Compared with N#Cc1ccccc1COC(=O)CCC(=O)c1cccs1, N#CCSc1ccccc1NC(=O)COC(=O)Cc1c[nH]c2ccccc12 is higher in “hERG current change (%, negative = inhibition) at 1uM” value: 5.96% for the first, 12.9% for the second.

First: CN(C)c1nc(C(=O)OCCO)nc(N(C)C)n1
Second: COc1c(C)cc(C(=O)C2CCCN(Cc3cnc(C)s3)C2)cc1C (centres unmarked)
The “hERG current change (%, negative = inhibition) at 1uM” value of the first is higher: 4.11% for the first, 2.78% for the second.

Compared with COc1ccc(C)cc1NC(=O)Nc1cnccn1, Cc1ccc(C)c(NC(=O)Cc2nc(CNCC(C)C)cs2)c1 is higher in “hERG current change (%, negative = inhibition) at 1uM” value: 4.47% for the first, 9.18% for the second.

Going from NC(=O)c1cc2ccccc2o/c1=N\NC(=O)c1ccccc1O to O=C(CCNC(=O)c1ccccc1Cl)N/N=C\c1ccc(O)cc1, the “hERG current change (%, negative = inhibition) at 1uM” value falls from 6.97% to 3.24%.

First: O=c1cc(NCCCO)c2ccccc2o1
Second: CCCNC(=O)N1[C@H]2CC[C@@H]1C(C(=O)OC)=C(c1cc3ccccc3o1)C2
The “hERG current change (%, negative = inhibition) at 1uM” value of the first is lower: 7.93% for the first, 10.6% for the second.

Compared with CCN(CC)c1ccc(/C=N/NC(=O)c2ccco2)c(O)c1, CCn1c2ccccc2c2cc(/C=N/NC(=O)c3cccc(C)c3)ccc21 is higher in “hERG current change (%, negative = inhibition) at 1uM” value: 9.17% for the first, 11.5% for the second.

Compared with CCC(=O)Oc1ccc(C(=O)Nc2c[nH]c(=O)[nH]c2=O)cc1, CCCCOc1ccc(/C=C/C(=O)Nc2ccc(C(N)=O)cc2)cc1 is lower in “hERG current change (%, negative = inhibition) at 1uM” value: 17% for the first, 9.03% for the second.

Going from O=S(=O)(c1cnc[nH]1)N1CCN(c2ccc(F)cc2)CC1 to Cn1cnc(S(=O)(=O)N2CCN(C(c3ccccc3)c3ccccc3)CC2)c1, the “hERG current change (%, negative = inhibition) at 1uM” value rises from 2.41% to 9.56%.

Compared with Cc1cccc(OCCC(=O)Nc2c(C)n(C)n(-c3ccccc3)c2=O)c1, Cc1cc(/C(O)=C2\C(=O)C(=O)N(CCN(C)C)C2c2ccncc2)ccc1OCc1ccccc1 (centres unmarked) is higher in “hERG current change (%, negative = inhibition) at 1uM” value: 10.8% for the first, 12.5% for the second.

First: CCC1CCCCN1Cc1nc2ccccc2c(=O)n1CC(C)=O (centres unmarked)
Second: CCn1nc(C)cc1C(=O)N1CCCC(C(=O)c2ccc(Oc3ccccc3)cc2)C1 (centres unmarked)
The “hERG current change (%, negative = inhibition) at 1uM” value of the first is lower: 6.14% for the first, 14.7% for the second.

Compared with CC(C)CC(NS(=O)(=O)c1ccccc1S(=O)(=O)NC(CC(C)C)C(=O)O)C(=O)O (centres unmarked), CSCCC(NS(=O)(=O)c1ccc2c(c1)oc(=O)n2C)C(=O)NC1CCCCC1 (centres unmarked) is higher in “hERG current change (%, negative = inhibition) at 1uM” value: 10.8% for the first, 13% for the second.

Going from O=C(c1cnn2c(C(F)(F)F)cc(-c3ccccc3)nc12)N1CCC2(CC1)OCCO2 to O=C(c1nc2nc(-c3cccs3)cc(C(F)(F)F)n2n1)N1CCN(Cc2ccccc2)CC1, the “hERG current change (%, negative = inhibition) at 1uM” value falls from 2.64% to -12.3%.

Going from O=C(CC1(O)C(=O)N(Cc2ccccc2)c2ccccc21)c1ccc2c(c1)OCO2 (centres unmarked) to Cc1nc2ccc(S(=O)(=O)NCC(=O)NCc3ccc4c(c3)OCO4)cc2s1, the “hERG current change (%, negative = inhibition) at 1uM” value falls from 15.5% to 0.628%.

Going from O=C1NC(=O)C(c2ccccc2)(c2ccccc2)N1 to Cc1nc2ccccc2c(=O)n1/N=C/c1cn(-c2ccccc2)nc1-c1cccs1, the “hERG current change (%, negative = inhibition) at 1uM” value falls from 11.5% to 6.58%.

Compared with COc1ccc(NC(=O)c2ccccc2SC)cc1, COc1ccc(C2CC(c3ccc(OC)cc3)n3nc(NC(=O)c4cccs4)nc3N2)cc1 (centres unmarked) is lower in “hERG current change (%, negative = inhibition) at 1uM” value: 16.3% for the first, -12.9% for the second.

First: CCOc1ccc(OCCCCn2ccnc2)cc1
Second: C=CCOc1cccc(CNc2cccc(C(=O)O)c2)c1
The “hERG current change (%, negative = inhibition) at 1uM” value of the first is lower: -1.71% for the first, 25.5% for the second.

Going from COc1cc(C(C(=O)NCC2CCCO2)N(C(=O)Cn2nnc3ccccc32)c2ccc(C(C)=O)cc2)ccc1O (centres unmarked) to CC(c1nccs1)N(C)C(=O)CCc1nnc(Cc2c[nH]c3ccccc23)o1 (centres unmarked), the “hERG current change (%, negative = inhibition) at 1uM” value falls from 16.4% to 11.4%.

First: COc1ccc(-n2nc3c(N4CCC(C(=O)NCCc5ccco5)CC4)nnc(C)c3c2C)cc1
Second: Cn1c(=O)c2sccc2n2c(CCCC(=O)NCc3ccco3)nnc12
The “hERG current change (%, negative = inhibition) at 1uM” value of the first is higher: 19.1% for the first, 13.2% for the second.

Going from CC1(C(=O)N2CCOCC2)CCCCC1 to O=C(C1CCC(=O)N(C2CCCC2)C1)N1CCN(Cc2cccc(F)c2)CC1 (centres unmarked), the “hERG current change (%, negative = inhibition) at 1uM” value falls from 13.3% to 5.7%.

Going from Cc1ccc(NC(=O)/C=C/c2ccc([N+](=O)[O-])s2)c(C)c1 to COc1cccc(/C=N/c2oc(-c3ccccc3)cc2C#N)c1O, the “hERG current change (%, negative = inhibition) at 1uM” value falls from 10.5% to 10.1%.

Going from Brc1ccc(-c2csc(N/N=C/c3cccnc3)n2)cc1 to Cc1cccc(C2c3[nH]c4ccccc4c3CCN2C(=O)c2nn(C)c(=O)c3ccccc23)n1 (centres unmarked), the “hERG current change (%, negative = inhibition) at 1uM” value rises from 6.66% to 12.7%.

Compared with CCN1CCN(C(C)CCc2ccccc2)CC1 (centres unmarked), CC(C)(C)c1ccc(-c2n[nH]c(=S)n2C2CCCC2)cc1 is lower in “hERG current change (%, negative = inhibition) at 1uM” value: 5.81% for the first, -0.949% for the second.

— article PMC4336329 (PLoS ONE, 2015)
